The supplement of paper PMC4166925
± gives the standard deviation of the averaged measurements. Whole data set: some 33,000 sequences, median “E-score (dimensionless, -0.5 to 0.5)” near -0.046, cut for the highest 2% near 0.36. The list shows a part of the results.

Test system: T1, SpTbr T-box DNA-binding domain (GST fusion)
T1 sequence: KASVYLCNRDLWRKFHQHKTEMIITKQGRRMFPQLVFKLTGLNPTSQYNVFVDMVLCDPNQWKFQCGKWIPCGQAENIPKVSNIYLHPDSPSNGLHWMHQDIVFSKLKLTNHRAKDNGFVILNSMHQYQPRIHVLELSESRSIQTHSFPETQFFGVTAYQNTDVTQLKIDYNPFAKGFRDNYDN
Assay: PBM E-score of 8-mer (E-score (dimensionless, -0.5 to 0.5)); Tbr is Tbrain of the sea star Patiria miniata (Pm) or the sea urchin Strongylocentrotus purpuratus (Sp); higher = stronger binding preference; most listed sequences are background and not binding sites
Conditions: the construct has about 5 more residues each side
In short: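 Using the Universal PBM Analysis Suite, every ungapped 8-mer received an enrichment E-score averaged over duplicate arrays. Probe intensities came from double-stranded Universal Agilent oligonucleotide arrays incubated with 200 nM GST-fused Tbr T-box DNA-binding domain in PBS (pH 7.5). That protein was expressed in BL21 E. coli at 20 °C and purified by glutathione affinity chromatography.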

Row | Sequence | PBM E-score of 8-mer
1 | AAATTGTT | 0.0233 ± 0.084
2 | TGACAACA | 0.358 ± 0.019
3 | ACTAGGCC | 0.00185 ± 0.069
4 | AGTAAAGG | -0.0337 ± 0.045
5 | AGAGGTGG | 0.285 ± 0.031
6 | CACGCGAG | 0.281 ± 0.029
7 | GAGCAGAC | 0.0347 ± 0.054
8 | CACATGCC | 0.0851 ± 0.12
9 | ACTCGCAT | -0.00696 ± 0.059
10 | CTTGGGGA | -0.0447 ± 0.002
11 | CCGTAAGG | -0.0419 ± 0.065
12 | GTTAGATA | -0.00904 ± 0.0026
13 | GGAACCTA | -0.211 ± 0.0083
14 | ACTGAATG | -0.223 ± 0.044
15 | CGCCTACG | 0.0976 ± 0.047
16 | TGACCAAA | -0.137 ± 0.02
17 | ATTAGGCG | 0.0618 ± 0.013
18 | AATAATCT | -0.265 ± 0.044
19 | ATGAACGA | -0.115 ± 0.065
20 | CACCTCAA | 0.375 ± 0.024
21 | ATGACATC | -0.181 ± 0.077
22 | CCCTAGGG | -0.203 ± 0.032
23 | TTCAGGAA | -0.1413 ± 0.0005
24 | CTTGCCAA | 0.153 ± 0.021
25 | AAAGACCA | -0.116 ± 0.022

Row | Sequence | PBM E-score of 8-mer
26 | GGTGACGA | 0.418 ± 0.018
27 | CAGCTCCC | -0.145 ± 0.07
28 | GAACCTCC | -0.159 ± 0.023
29 | ATTAAACA | 0.104 ± 0.071
30 | AATATCTA | -0.235 ± 0.068
31 | CATCGATA | -0.00022 ± 0.06
32 | CGCCGACG | 0.0879 ± 0.094
33 | ACACCCCC | 0.363 ± 0.015
34 | GTGGGAAC | 0.336 ± 0.04
35 | GGCGCCAC | 0.285 ± 0.023
36 | CAGCTTCC | -0.271 ± 0.0048
37 | TGGATACA | -0.148 ± 0.033
38 | AAAGTAAG | -0.0307 ± 0.034
39 | CATCGGGC | -0.0542 ± 0.062
40 | ACGACTAA | -0.113 ± 0.084
41 | GCCAGCAA | -0.133 ± 0.075
42 | CCCGTTGA | 0.089 ± 0.041
43 | GGCGGACC | -0.0977 ± 0.012
44 | CTAAACAC | 0.124 ± 0.019
45 | AGGGATCG | 0.0647 ± 0.027
46 | CACCTCAG | 0.376 ± 0.0075
47 | CAAGGCCA | -0.167 ± 0.032
48 | CGTGAGGC | 0.103 ± 0.0066
49 | GGCGGGAA | 0.153 ± 0.029
50 | ACGACTAT | -0.00137 ± 0.081

Row | Sequence | PBM E-score of 8-mer
51 | CTCATCCC | -0.108 ± 0.05
52 | ACCGCCCT | -0.287 ± 0.031
53 | CAGATTGC | -0.0789 ± 0.041
54 | ATTTAGTC | -0.0782 ± 0.063
55 | GCCAACTA | 0.12 ± 0.022
56 | CGAAAAGC | 0.122 ± 0.042
57 | CCATTCGC | 0.244 ± 0.048
58 | TGTCGTAA | 0.122 ± 0.018
59 | CCCGTGTC | 0.00147 ± 0.088
60 | CAGAGGAA | -0.137 ± 0.092
61 | CACGGTCG | 0.0413 ± 0.091
62 | TCTAGGCA | -0.0589 ± 0.044
63 | CTGTCTAA | -0.168 ± 0.068
64 | TCCAAGCA | 0.0015 ± 0.0059
65 | GATTCCGC | -0.0748 ± 0.044
66 | ACGGTGGG | -0.228 ± 0.054
67 | ATCGTAAC | -0.00798 ± 0.067
68 | CGGTACCG | -0.0929 ± 0.11
69 | GGCTTTTA | -0.038 ± 0.049
70 | GCTGGTCC | -0.247 ± 0.035
71 | AATATGTC | -0.0493 ± 0.12
72 | CGCGAGGA | 0.257 ± 0.036
73 | ACTTGTAA | 0.0941 ± 0.097
74 | AAATAAGC | -0.0321 ± 0.038
75 | CGTGGGCC | -0.2894 ± 0.0004

Row | Sequence | PBM E-score of 8-mer
76 | AGCAAAAT | -0.0958 ± 0.067
77 | CTGGACGA | 0.115 ± 0.033
78 | AAAACGGC | -0.091 ± 0.023
79 | CGGAACAA | -0.128 ± 0.025
80 | AGTCGGTC | -0.162 ± 0.036
81 | AATGTTAC | -0.172 ± 0.031
82 | CGGTCTTA | -0.031 ± 0.0092
83 | AGCTTCTC | 0.0298 ± 0.03
84 | GGTGGCGA | 0.358 ± 0.02
85 | CACATACC | 0.28 ± 0.0043
86 | GAACTTAC | -0.0233 ± 0.034
87 | GTCACGAA | 0.298 ± 0.02
88 | CGGACAAA | -0.0576 ± 0.039
89 | CGATGTGA | 0.183 ± 0.017
90 | ATACCTGG | 0.0363 ± 0.063
91 | CAGTGAGA | 0.157 ± 0.062
92 | TCCAAACA | 0.00763 ± 0.013
93 | CGCTTTTC | 0.114 ± 0.028
94 | GACAAGAC | 0.0763 ± 0.0014
95 | AACGTTGT | 0.0629 ± 0.015
96 | CGAAGACG | -0.187 ± 0.011
97 | CTCTGGCA | -0.0543 ± 0.092
98 | CTTTTACC | -0.189 ± 0.022
99 | TTCTTCAA | -0.119 ± 0.038
100 | AATCAGCC | -0.109 ± 0.028

Row | Sequence | PBM E-score of 8-mer
101 | TAAGATAA | -0.186 ± 0.023
102 | CTGTTGTC | 0.196 ± 0.003
103 | ATCTTGAA | -0.159 ± 0.06
104 | AGGGTACA | -0.139 ± 0.016
105 | ACAGGGTC | 0.0376 ± 0.014
106 | CGTCTTAA | -0.156 ± 0.024
107 | GTTTATGA | -0.1067 ± 0.001
108 | ACGGTAGT | -0.184 ± 0.0027
109 | AATAGGGG | -0.156 ± 0.081
110 | CGCAGGAG | -0.0618 ± 0.062
111 | GCCCACAC | 0.323 ± 0.011
112 | CTATGCTC | -0.00534 ± 0.12
113 | ATTAGGGA | -0.216 ± 0.039
114 | AAACGCTG | -0.129 ± 0.063
115 | CATACTTC | -0.281 ± 0.03
116 | CTTCCTTC | -0.175 ± 0.02
117 | AGAAAGAT | -0.108 ± 0.017
118 | TGCGGCAA | -0.0828 ± 0.018
119 | GTAACCAC | 0.131 ± 0.017
120 | GCTGGCTA | -0.0862 ± 0.076
121 | CCAGCGGG | -0.201 ± 0.052
122 | AAAACACG | 0.162 ± 0.0017
123 | ATATGTAG | -0.262 ± 0.0068
124 | ATGCAGAA | -0.135 ± 0.0029
125 | GCAGTAAA | -0.101 ± 0.05

Row | Sequence | PBM E-score of 8-mer
126 | AGTTTTCC | -0.139 ± 0.017
127 | AGCTTAAC | -0.114 ± 0.057
128 | ATATCATG | -0.047 ± 0.0019
129 | CCTTCTAA | -0.0346 ± 0.021
130 | CGAATACA | 0.145 ± 0.063
131 | ATGTGCAG | 0.0321 ± 0.052
132 | CCTAGGGC | -0.0908 ± 0.074
133 | ATTATTAC | -0.0141 ± 0.028
134 | CATGAATG | -0.0877 ± 0.012
135 | CACTTGTA | 0.116 ± 0.046
136 | TAACTGAA | -0.0238 ± 0.023
137 | ACTTTTCG | 0.198 ± 0.034
138 | TTAGAAAA | -0.131 ± 0.021
139 | CTGAGCTA | -0.182 ± 0.066
140 | GCAGTGCA | -0.104 ± 0.014
141 | ACCACGGA | -0.0587 ± 0.03
142 | CAGTTCAC | 0.251 ± 0.038
143 | AGAGGCAC | -0.226 ± 0.02
144 | CACACAAA | 0.209 ± 0.022
145 | GTGCGCGA | 0.201 ± 0.12
146 | ATATTGTG | 0.185 ± 0.032
147 | ATTAACAG | 0.139 ± 0.014
148 | GTCAGCTA | -0.00347 ± 0.018
149 | GTATGGCA | 0.0595 ± 0.0057
150 | CAGTATCA | -0.0107 ± 0.037

Row | Sequence | PBM E-score of 8-mer
151 | ATGCCACG | 0.133 ± 0.013
152 | ACGACAAG | 0.24 ± 0.026
153 | GACAGTCC | -0.0255 ± 0.02
154 | CTTCGAGA | -0.073 ± 0.056
155 | GTCAAAAA | 0.0606 ± 0.12
156 | AAAGTGAC | 0.367 ± 0.032
157 | CCTAGTCA | 0.0243 ± 0.025
158 | TAAATATA | -0.112 ± 0.011
159 | ACTGGCCT | -0.186 ± 0.03
160 | GCTTGGCA | -0.00545 ± 0.042
161 | CGCTGATA | -0.0454 ± 0.046
162 | ACGGCTGG | -0.0696 ± 0.019
163 | ACAGGCGG | 0.00977 ± 0.0076
164 | AGGTACGG | 0.0344 ± 0.00076
165 | CAGAGTAG | -0.204 ± 0.021
166 | ATGACATG | -0.0149 ± 0.038
167 | ATGAACCA | -0.244 ± 0.055
168 | ATCAGCAT | 0.119 ± 0.02
169 | ACGAGGAG | -0.0395 ± 0.047
170 | AAGTGGGC | 0.114 ± 0.043
171 | AAAAGTTT | 0.0128 ± 0.031
172 | CGACCTCA | 0.0385 ± 0.017
